Our source for the Potency values is PubChem BioAssay AID360 (National Center for Advancing Translational Sciences (NCATS), 2006).

Among all 48,000 compounds or so, about 550 (1.1%) were called active. Another 4% or so got no clear call; they are omitted. Cut-off read from the data, not from the text of the source: active = potency below about 15 µM; inconclusive = mostly about 16 µM to 33 µM; inactive = weaker than that. Some of the results follow. Where only a bound is given, the exact number is not on record here.
Potency is the fitted concentration of half-maximal effect.

UniProt P04062, sequence (P04062 whole entry, looked up): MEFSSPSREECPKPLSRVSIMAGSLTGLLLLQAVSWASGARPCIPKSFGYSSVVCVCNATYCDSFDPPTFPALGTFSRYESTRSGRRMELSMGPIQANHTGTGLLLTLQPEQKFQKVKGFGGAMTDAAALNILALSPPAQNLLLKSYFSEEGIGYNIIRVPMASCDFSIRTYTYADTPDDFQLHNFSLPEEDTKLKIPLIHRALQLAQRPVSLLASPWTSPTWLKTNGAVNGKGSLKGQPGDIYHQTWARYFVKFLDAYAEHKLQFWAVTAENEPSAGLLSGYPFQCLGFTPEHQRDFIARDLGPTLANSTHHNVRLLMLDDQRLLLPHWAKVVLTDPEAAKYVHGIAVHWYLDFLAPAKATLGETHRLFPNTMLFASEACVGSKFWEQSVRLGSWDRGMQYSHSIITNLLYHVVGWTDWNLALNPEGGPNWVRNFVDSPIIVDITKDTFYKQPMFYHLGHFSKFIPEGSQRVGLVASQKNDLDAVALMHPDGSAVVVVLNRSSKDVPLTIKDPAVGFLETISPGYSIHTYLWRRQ

This assay concerns the target Lysosomal acid glucosylceramidase (Homo sapiens) (UniProt P04062). The assay can be described thus: Glucocerebrosidase.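 Note: the screen sought inhibitors.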 The note with it: purified enzyme, resorufin glucoside fluorescence (screen aimed at inhibitors), 20 min. Put shortly:
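Normal human glucocerebrosidase (0.2 nM final) was assayed with resorufin β-D-glucopyranoside (30 uM final) in 50mM citric acid/KH2PO4, 10mM sodium taurocholate, 0.01% tween-20, pH 5.9. Compounds were titrated; fluorescence (Ex 548, Em 600) read after 20 min at RT.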
With `c1ccc(-c2cc(N3CCCCC3)ncn2)cc1`, the Potency was inactive: > 76.9 µM. On to `CCN(CC)/C(=N/O)NC(=O)NS(=O)(=O)c1ccc(C)cc1`, for which the Potency is inactive: > 76.9 µM. `CNC(=O)c1cc2ccc(OC)cc2oc1=O`: the Potency is inactive: > 76.9 µM.

Consider `CCOC(=O)C1(C)NC(c2cc(OC)c(OC)c(OC)c2)C2C(=O)N(CC)C(=O)C21` (stereo not given), for which the Potency was inactive: > 76.9 µM. The same measure for `CCC(=O)Nc1cccc(NC(=O)CSc2nnc(C3CC3)n2C)c1`: inactive: > 76.9 µM.

For `CCCCn1c(SCC(=O)c2cc(OC)ccc2OC)nc2cc(S(N)(=O)=O)ccc21`, the Potency was inactive: > 76.9 µM. In the case of `CCOCCCn1c(=N)c(C(=O)NCc2ccc3c(c2)OCO3)cc2c(=O)n3cccc(C)c3nc21`, the Potency is inactive: > 76.9 µM. As for `CCN(CC)CCCNC(=O)c1sc2nc(-c3ccc(F)cc3)cn2c1C`, the figure is inactive: > 76.9 µM. Consider `O=C(NCc1ccco1)c1nc(-c2ccccc2)n(-c2ccccc2)n1`, for which the Potency was inactive: > 76.9 µM. For `COc1ccc(S(=O)(=O)NCC(=O)N(CC(=O)NCC2CCCO2)c2cc(C)ccc2C)cc1` (stereo not given), the Potency is inactive: > 76.9 µM.

On to `CC(CN1CCOCC1)OC(=O)COc1ccc(F)cc1` (stereo not given), for which the Potency is inactive: > 76.9 µM. Take `Cc1cccc(NC(=O)C2CCCN(C(=O)NC3CCCCC3)C2)c1C` (stereo not given): the Potency was inactive: > 76.9 µM. As for `CCOC(=O)Nc1cc(C)ccc1OC`, the figure is inactive: > 76.9 µM; as for `Cc1ccc(-c2nnn(CC(=O)Nc3ccc4nn(-c5ccccc5)nc4c3)n2)o1`, inactive: > 76.9 µM. The same measure for `NC(=O)C1CCCN(S(=O)(=O)c2ccccc2)C1` (stereo not given): inactive: > 76.9 µM; for `CC1(C)CC(NS(=O)(=O)c2ccccc2)CC(C)(C)N1`: inactive: > 76.9 µM. As for `O=C1c2ccccc2C(=O)N1Cc1nc2ccccc2c(=O)n1CCCN1CCOCC1`, the figure is inactive: > 76.9 µM. `CN(C)C1NC(=O)c2cc(-c3ccccc3)sc2N1` (stereo not given): the Potency was inactive: > 76.9 µM. `CCOc1cccc(C2C(C(=O)c3ccc(C)o3)=C(O)C(=O)N2c2nccs2)c1` (stereo not given): the Potency is inactive: > 76.9 µM. As for `O=C(Nc1nccs1)c1cccc(S(=O)(=O)N2CCCCC2)c1`, the figure is inactive: > 76.9 µM. `COc1ccc(OC)c(NC(=O)NC2(C(F)(F)F)Oc3ccccc3O2)c1`: the Potency was inactive: > 76.9 µM. Take `O=C(CSc1ncc(-c2ccccc2)nn1)NCc1ccco1`: the Potency was inactive: > 76.9 µM. In the case of `CC(=O)N1CCC2(CC1)CC(=O)c1cc(OCC(=O)NCc3ccco3)ccc1O2`, the Potency is inactive: > 76.9 µM. The same measure for `Cc1ccc(C(C(=O)NC2CCCCC2)N(C(=O)c2csnn2)C2CCCC2)o1` (stereo not given): inactive: > 76.9 µM; for `CC(=O)Oc1c(S(=O)(=O)c2ccccc2)c(C)nn1C(C)(C)C`: inactive: > 76.9 µM; for `O=C(Cc1cccs1)Nc1ccc(S(=O)(=O)Nc2ncccn2)cc1`: inactive: > 76.9 µM. As for `O=C(Cc1cccs1)Nc1nncs1`, the Potency was inactive: > 76.9 µM. On to `COc1ccc2c(Cl)c(C(N)=O)sc2c1`, for which the Potency was inactive: > 76.9 µM. `COc1ccc(OC)c(-c2cc(C(=O)NCc3cccs3)no2)c1`: the Potency is inactive: > 76.9 µM.

Consider `Cc1c2c(n3c(nc4ccccc43)c1C#N)N(Cc1cccnc1)CC2`, for which the Potency is inactive: > 76.9 µM. As for `CC1Cc2cc(/C(O)=C3/C(=O)C(=O)N(CCN4CCOCC4)C3c3cccc(Cl)c3)ccc2O1` (stereo not given), the Potency is inactive: > 76.9 µM. As to `CCOC(=O)C1=C(CC)Nc2ccccc2N=C1NC(=O)Nc1ccccc1OC`, the Potency is inactive: > 76.9 µM.

For `O=C(COc1ccc(S(=O)(=O)NC2CCCCC2)cc1)NCC1CCCO1` (stereo not given), the Potency is inactive: > 76.9 µM. Turning to `CCOC(=O)c1c(C)c(C(=O)N2CCCCCC2)c(C)n1CC`, the Potency is inactive: > 76.9 µM. The same measure for `COc1ccccc1N1CCN(C(=O)CSc2nnc(NC(=O)c3ccco3)s2)CC1`: inactive: > 76.9 µM; for `O=C(O)CCn1c(C2CCCCC2)nc2ccccc21`: inactive: > 76.9 µM; for `CCOC(=O)N1CCC(NC(=O)Cc2cn(C)c3ccccc23)CC1`: inactive: > 76.9 µM. For the compound `CCOC(=O)C1Cc2c([nH]c3ccccc23)CN1` (stereo not given), the Potency is inactive: > 76.9 µM. As for `c1cc(CSc2nnc(-c3ccc4c(c3)OCO4)o2)ccn1`, the Potency was inactive: > 76.9 µM. The same measure for `CCN(C)c1ccc(/C=N\n2nnnc2N)cc1`: inactive: > 76.9 µM; for `CC1(C)Cc2ccccc2-c2nnc(SCC(=O)Nc3nc4ccccc4s3)n21`: inactive: > 76.9 µM; for `Cc1ccc(C2c3sc(=O)[nH]c3SC3C(=O)NC(=O)C32)cc1` (stereo not given): inactive: > 76.9 µM. As for `COCc1cc(C2C(C(=O)c3ccco3)=C(O)C(=O)N2CCOCCO)ccc1O` (stereo not given), the figure is inactive: > 76.9 µM. With `CS(=O)(=O)N(CC(=O)Nc1ccc2c(c1)OCCO2)Cc1ccccc1`, the Potency was inactive: > 76.9 µM. With `O=C(NCc1ccccc1Cl)C1CCN(S(=O)(=O)N2CCCCC2)CC1`, the Potency was inactive: > 76.9 µM. With `CCCc1nc2ccccc2n2cc3c(=O)n(C)c(=O)n(C)c3c12`, the Potency was inactive: > 76.9 µM. As for `CCn1c(=N)n(CC(=O)OC)c2ccccc21`, the figure is inactive: > 76.9 µM. Consider `CC1CC(C)CN(Cc2nc3c(c(=O)n(C)c(=O)n3C)n2CCN2CCOCC2)C1` (stereo not given), for which the Potency is inactive: > 76.9 µM.

Regarding `Cc1ccccc1NC(=O)C1Cc2ccccc2C(=O)O1` (stereo not given), the Potency was inactive: > 76.9 µM.

Take `CCCSc1nnc(-c2ccccc2NC(=O)CC)c(=O)[nH]1`: the Potency is inactive: > 76.9 µM.

`CCCOc1ccc(/C(O)=C2/C(=O)C(=O)N(CCN(C)C)C2c2ccc(O)c(OC)c2)cc1` (stereo not given): the Potency was inactive: > 76.9 µM. The same measure for `S=c1oc(-c2ccncc2)nn1CCc1ccncc1`: inactive: > 76.9 µM; for `CN(c1ccc(C(=O)NCc2ccc3c(c2)OCO3)cc1)S(C)(=O)=O`: inactive: > 76.9 µM; for `COc1cc(C2C(C#N)=C(N)Oc3cc(C)n(CC4CCCO4)c(=O)c32)cc2c1OCO2` (stereo not given): inactive: > 76.9 µM. Regarding `CCCCN(CC)CCCNC(=O)c1cc2cc3ccc(OC)cc3nc2o1`, the Potency is inactive: > 76.9 µM. The same measure for `COc1ccccc1C1/C(=C(/O)c2ccccc2)C(=O)C(=O)N1CC(C)O` (stereo not given): inactive: > 76.9 µM. As for `CCc1nnc(NC(=O)CSc2nnc(COc3ccccc3)n2Cc2ccccc2)s1`, the figure is inactive: > 76.9 µM.

In the case of `COc1ccc(CNC(=O)C(NS(=O)(=O)c2ccc3c(c2)CCCN3C(C)=O)C(C)C)cc1` (stereo not given), the Potency is inactive: > 76.9 µM. As for `CCOc1cc(C)c(C(C)C)cc1S(=O)(=O)n1ccc(C)n1`, the figure is inactive: > 76.9 µM; as for `O=C1c2ccccc2NC(c2ccc(F)cc2)N1Cc1ccco1` (stereo not given), inactive: > 76.9 µM; as for `COC(=O)c1[nH]c2ccc(C)cc2c1NC(=O)CN1CCN(Cc2ccccc2)CC1`, inactive: > 76.9 µM. The same measure for `Cn1c(=O)cc(OCCCC(=O)N2CCN(c3ccccc3)CC2)c2ccccc21`: inactive: > 76.9 µM; for `COc1cccc(C(=O)OC(C)CN2CCCC2)c1` (stereo not given): inactive: > 76.9 µM; for `CN(C)Cc1nc2ccccc2c(=O)n1Cc1nc(C(C)(C)C)cs1`: inactive: > 76.9 µM. As for `CC(C)(C)n1nnnc1C(c1ccccc1F)N(Cc1ccco1)CC1CCCO1` (stereo not given), the figure is inactive: > 76.9 µM; as for `CC(C)C(=O)Nc1cccc2nsnc12`, inactive: > 76.9 µM.

Take `COc1ccccc1CNC(=O)COC(=O)c1ccc(NC(N)=O)cc1`: the Potency was inactive: > 76.9 µM. As to `COCCn1nnnc1CN1CCN(c2cccc(C(F)(F)F)c2)CC1`, the Potency is inactive: > 76.9 µM. As for `CCC(C)(C)n1nnnc1C(c1ccncc1)N1CCN(c2cccc(OC)c2)CC1` (stereo not given), the figure is inactive: > 76.9 µM; as for `Cc1cc(N)ccc1NC(=O)c1ccccc1`, inactive: > 76.9 µM; as for `CCOc1ccc(NCCC(=O)c2ccc3c(c2)OCO3)cc1`, inactive: > 76.9 µM.

For `O=C(C1=C(O)C(=O)N(CCc2ccccc2)C1c1cccnc1)c1ccco1` (stereo not given), the Potency was inactive: > 76.9 µM. Consider `O=C(CSc1nnnn1Cc1ccccc1)Nc1ccc2c(c1)OCCO2`, for which the Potency was inactive: > 76.9 µM. The same measure for `O=C(CSCCO)N1CCc2ccccc21`: inactive: > 76.9 µM; for `CC(CN1CCCCC1)OC(=O)c1ccc(Cl)cc1Cl` (stereo not given): inactive: > 76.9 µM; for `COCCNC(=O)C(c1ccccc1C)N(CCOC)C(=O)Cn1nnc2ccccc21` (stereo not given): inactive: > 76.9 µM. As for `Cc1ccc(N(CC(N)=O)C2SC(=O)NC2=O)cc1` (stereo not given), the figure is inactive: > 76.9 µM; as for `Cn1cnc(S(=O)(=O)NCc2cccs2)c1`, inactive: > 76.9 µM.

For the compound `CC(=O)Nc1cccc(NC(=O)CSc2nnnn2Cc2ccccc2)c1`, the Potency is inactive: > 76.9 µM. Take `COc1cc(-c2ccc(NC(=O)CN3CCCCC3)c(OC)c2)ccc1NC(=O)CN1CCCCC1`: the Potency is inactive: > 76.9 µM.

Regarding `Cc1ccccc1C(=O)NC1CCN(Cc2nnnn2Cc2ccccc2)CC1`, the Potency is inactive: > 76.9 µM. The same measure for `O=C(CSc1nnnn1-c1ccccc1)N1CCc2ccccc21`: inactive: > 76.9 µM; for `CCCn1c(N)c(C(=O)CSc2nnc(-c3ccco3)n2Cc2ccccc2)c(=O)[nH]c1=O`: “inactive”. As for `COc1ccc(-c2cc(C(=O)NCc3cccnc3)no2)cc1OC`, the figure is inactive: > 76.9 µM; as for `O=C(Nc1ccc(Cl)cn1)C1CCCN1S(=O)(=O)c1ccc(Cl)cc1` (stereo not given), inactive: > 76.9 µM; as for `COc1ccc(N2CCN(CC(=O)Nc3cc4c(cc3C(C)=O)OCO4)CC2)cc1`, inactive: > 76.9 µM. The same measure for `Cc1nnc(SCCOC(N)=O)n1C`: inactive: > 76.9 µM. In the case of `COC(=O)Nc1sc2c(c1C(=O)N1CCOCC1)CCC(C)C2` (stereo not given), the Potency is inactive: > 76.9 µM. Take `Cc1ccc(-c2nnc(N3CCN(S(C)(=O)=O)CC3)c3ccccc23)cc1`: the Potency is inactive: > 76.9 µM.

Turning to `O=C(CSc1nc(-c2ccccc2)cs1)NCc1ccco1`, the Potency was inactive: > 76.9 µM.
